Experimental findings from the supplement of paper PMC12645437, “Orthogonal IMiD-Degron Pairs Induce Selective Protein Degradation in Cells” (ACS Chemical Biology, 2025) are described below.

The list shows a part of the results.
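Further: jurkat cells carrying a lentiviral library of mutant zinc finger degrons fused to EGFP plus mCherry, mCherry+ cells FACS sorted, degron abundance counted by next-generation sequencing.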

For the test, the target named is no compound (DMSO). The test can be described thus: log2 fold change of degron read counts, EGFP-low vs EGFP+ sorted cells; higher = lower degron-EGFP level without compound (poor expression or instability). The settings on record: compound: DMSO control; 18 h.
In the case of FMCPVCGALFTQKGNLLRHIKL, the “log2 fold change of degron read counts” value turned out to be 0.761.

For FMCSVCGHGFTQKGNLLRHIKL, the “log2 fold change of degron read counts” value is -0.172.

For FICNQCGRVFTQKGNLLRHIKL, the “log2 fold change of degron read counts” value was -0.048. The result for FKCNQCGAQFTQKGNLLRHIKL reads -0.557; that for FDCPICGAPFTQKGNLLRHIKL, -0.062; that for FQCSVCGHQFTQKGNLLRHIKL, -1.4.

With FHCPICGAPFTQKGNLLRHIKL, the “log2 fold change of degron read counts” value is 0.439. Regarding FLCNQCGHLFTQKGNLLRHIKL, the “log2 fold change of degron read counts” value stood at 0.637. The result for FKCPICGHKFTQKGNLLRHIKL reads -0.808; that for FFCNQCGREFTQKGNLLRHIKL, -0.861. With FNCEICGAGFTQKGNLLRHIKL the figure was -2.32; with LYCEICGFKCTQKGNLLRHIKL, -0.281; with LICNQCGFSCTQKGNLLRHIKL, 0.218. With FACNQCGHLFTQKGNLLRHIKL the figure was 0.0483. FLCPQCGARFTQKGNLLRHIKL: the “log2 fold change of degron read counts” value is -0.597. With FDCNICGAVFTQKGNLLRHIKL the figure was -0.41; with FCCNVCGALFTQKGNLLRHIKL, -0.667; with FECDQCGAMFTQKGNLLRHIKL, -2.48. With FKCDVCGAAFTQKGNLLRHIKL the figure was -1.14.

As for FKCDVCGAIFTQKGNLLRHIKL, the “log2 fold change of degron read counts” value was -0.129. The result for FNCPQCGAHFTQKGNLLRHIKL reads -0.439. With FHCNICGAGFTQKGNLLRHIKL the figure was -0.545. Take LICNQCGFCCTQKGNLLRHIKL: the “log2 fold change of degron read counts” value worked out at 0.625. The result for FFCNVCGAQFTQKGNLLRHIKL reads -1.12; that for LACPICGFPCTQKGNLLRHIKL, 1.44; that for FRCEICGASFTQKGNLLRHIKL, -1.12. For LTCPICGFICTQKGNLLRHIKL, the “log2 fold change of degron read counts” value is 0.989. As for LFCPICGFRCTQKGNLLRHIKL, the “log2 fold change of degron read counts” value was 1.03.

Consider FQCNQCGHLFTQKGNLLRHIKL, for which the “log2 fold change of degron read counts” value is -0.342.

Consider LSCNQCGFRCTQKGNLLRHIKL, for which the “log2 fold change of degron read counts” value worked out at 1.25.

In the case of FQCDVCGAKFTQKGNLLRHIKL, the “log2 fold change of degron read counts” value is -1.67.

Take LKCPICGFLCTQKGNLLRHIKL: the “log2 fold change of degron read counts” value was determined as 0.762. In the case of FGCNQCGHFFTQKGNLLRHIKL, the “log2 fold change of degron read counts” value worked out at 1.89. As for FGCEICGHFFTQKGNLLRHIKL, the “log2 fold change of degron read counts” value came out at 0.302.

Take FECPICGRLFTQKGNLLRHIKL: the “log2 fold change of degron read counts” value was -0.396. With FHCNQCGRAFTQKGNLLRHIKL the figure was -0.247; with LYCEICGFCCTQKGNLLRHIKL, 0.802. The result for FLCNQCGATFTQKGNLLRHIKL reads -0.659; that for FGCNQCGAKFTQKGNLLRHIKL, 0.0237. On to LACEICGFSCTQKGNLLRHIKL, for which the “log2 fold change of degron read counts” value was -0.64.

In the case of FQCPVCGALFTQKGNLLRHIKL, the “log2 fold change of degron read counts” value was -0.179. The result for FKCNQCGHPFTQKGNLLRHIKL reads 0.531; that for FMCDICGADFTQKGNLLRHIKL, -1.23. The result for FACEICGAAFTQKGNLLRHIKL reads -1.49; that for FECDICGAQFTQKGNLLRHIKL, -2.09; that for FVCDVCGARFTQKGNLLRHIKL, -1.67. The result for FWCNICGARFTQKGNLLRHIKL reads 0.952.

Regarding FYCEVCGAIFTQKGNLLRHIKL, the “log2 fold change of degron read counts” value is -0.103. With FCCNVCGAKFTQKGNLLRHIKL the figure was -0.877; with FQCNICGAMFTQKGNLLRHIKL, -0.447.
